# In PubChem BioAssay AID686979 (National Center for Advancing Translational Sciences (NCATS), 2013):
# Among all 420,000 compounds or so, about 50,000 (12%) were called active. Inconclusive means that the source gave no clear call. Such entries were picked first, then a sample of the others. Calls come from the whole dose curve; as a rule, active = well fitted inhibition curve with a large enough effect; inconclusive = small, poorly fitted or top-dose-only effect; inactive = flat fitted curve, though single readings scatter. No potency is given beside an inconclusive call; the fits are too rough.
# Experiment: qHTS for Inhibitors of human tyrosyl-DNA phosphodiesterase 1 (TDP1): qHTS in cells in presence of CPT; note: nearly all actives have a fitted effect of over 55% in size
# Conditions: chicken DT40 Tdp1-/-;hTDP1 cells + 20 nM CPT, ATP luminescence, 48 h; activity change, negative = growth inhibition: at 46.2 µM (top of the series)
# Outline: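 Chicken DT40 Tdp1-/- cells stably complemented with human TDP1 were seeded at 400 cells/well in medium containing 20 nM camptothecin, exposed to pin-transferred compounds, and grown at 37 °C for at least 48 hr. Viability was read as ATP luminescence.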
# % is set by controls: 0 for no effect and ±100 for the full control effect; potency is the fitted concentration of half-maximal effect; tags give direction and shape of the fitted curve.
Structure (SMILES),"activity change, negative = growth inhibition",Potency
CCCCOC(=O)c1ccc(NC(=O)C(=O)NCCN(C)C)cc1,inconclusive: -31.3% [inhibitor],
Cc1ccccc1NC(=O)c1c(C)oc2ccc(O)c(CN3CCN(C)CC3)c12,,active: 16.4 µM
O=C(CN1CCN(S(=O)(=O)c2cc(Cl)ccc2Cl)CC1)c1ccc(O)c(O)c1,,active: 9.2 µM
CC(/C=C1\SC(=S)N(NS(=O)(=O)c2ccccc2)C1=O)=C\c1ccccc1,inactive: -1.2%,
CC(C)(C)c1ccc(-c2nc(SCC(=O)Nc3ccccc3F)n3[nH]c(=O)cc3n2)cc1,,"inconclusive [inhibitor, partial curve]"
CN1CCN(C(=O)/C(=C/c2cccs2)NC(=O)c2ccco2)CC1,inactive: 16.5%,
O=C(O)C1CCCN1S(=O)(=O)c1ccc2ccccc2c1 (stereo not drawn),inactive: -14.3%,
CC(CCc1ccc(O)cc1)NCCc1ccc(O)c(O)c1 (stereo not drawn),,active: 26.6 µM
CCCCn1c(O)c2n(c1=O)Cc1ccccc1N=C2c1ccc(C)cc1,inactive: -27.1%,
COC(=O)c1ccc2c(c1)C(C)(C)C(/C=C/c1ccccc1O)=[N+]2C,,active: 3.16 µM
CC(=O)C1=CCC(c2cccc(Cl)c2)N(S(=O)(=O)c2ccc(C)cc2)C1 (stereo not drawn),,active: 14.6 µM
O=C1c2ccccc2[C@@H]2C[C@H](NC34CC5CC(CC(C5)C3)C4)[C@@H](O)CCN12,,"inconclusive [inhibitor, single point]"
COc1ccc(/C=C/c2nc(S(=O)(=O)c3ccccc3)c(N(C)C)o2)cc1OC,,"inconclusive [inhibitor, single point]"
CCOC(=O)NNC(=O)CCn1c2c(c3ccccc31)CCCC2,,"inconclusive [inhibitor, partial curve, poor fit]"
COC(=O)c1ccc(COC(=O)C(NC(=O)Cc2ccccc2)C(C)C)cc1 (stereo not drawn),inactive: -27.3%,
Cc1ccccc1CSc1cn(CC(=O)N2CCCCCC2)c2ccccc12,,"inconclusive [inhibitor, single point]"
COCC1CCN(Cc2cn(Cc3ccccc3)nc2-c2cc3ccccc3o2)CC1,,"inconclusive [inhibitor, single point]"
O=C(c1csnn1)N1CCC2(CC1)CCN(C(c1ccccc1)c1ccccc1)CC2,,"inconclusive [inhibitor, single point]"
COc1ccc(NC(=O)c2c[nH]c(=O)n(-c3ccc(C)c(C)c3)c2=O)c(OC)c1,,"inconclusive [inhibitor, single point]"
Cc1cccc(Nc2nnc(SCC(=O)NC(=O)CN3CCCC3=O)s2)c1,inactive: 1.86%,
O=C(Nc1ccc(Cl)c(C(F)(F)F)c1)C1CCN(S(=O)(=O)c2cccc3nonc23)CC1,,active: 13 µM
CN1CCN(c2ccc(-c3cc(NC=O)c4ncc(-c5ccccc5)n4c3)cc2)CC1,,active: 20.6 µM
COc1ccc(CNc2nc3ccc(C)cc3s2)c(OC)c1OC,,"inconclusive [inhibitor, single point]"

Structure (SMILES),"activity change, negative = growth inhibition",Potency
CN(C)CCCOc1ccc(C(C)(C)c2ccccc2)cc1,,"inconclusive [inhibitor, single point]"
CC(=O)Nc1cccc(-c2ccnc3c2CC(C(=O)NCCC(F)(F)F)O3)c1 (stereo not drawn),,"inconclusive [inhibitor, single point]"
CCCCn1c(NCc2ccc(N(C)C)cc2)nc2ccccc21,,active: 25.9 µM
CN(c1ccccc1)S(=O)(=O)c1ccc(Cl)c(C(=O)Nc2nn[nH]n2)c1,inactive: 4.39%,
O=C(OC1Cc2c(O)cc(O)cc2OC1c1cc(O)c(O)c(O)c1-c1c(C2Oc3cc(O)cc(O)c3CC2OC(=O)c2cc(O)c(O)c(O)c2)cc(O)c(O)c1O)c1cc(O)c(O)c(O)c1 (stereo not drawn),inactive: -3.38%,
CCOc1cccc(C(=O)Nc2nccs2)c1,inactive: -12.4%,
CC1Oc2ccccc2N(CC(=O)N(Cc2ccccc2)Cc2ccccn2)C1=O (stereo not drawn),,"inconclusive [inhibitor, single point]"
COc1ccc(-c2n[nH]c(=S)n2-c2ccc(C)cc2)cc1,,"inconclusive [inhibitor, single point]"
CC[n+]1c(C)sc2c(C)cc(C)cc21,,active: 23.1 µM
COc1ccc(C(C)(NC(C)=O)c2nc(-c3cccc(C#N)c3)cs2)cc1 (stereo not drawn),,active: 14.6 µM
CCN(CC)S(=O)(=O)c1ccc2[nH]c(=O)cc(C(=O)Nc3ccccc3N3CCCC3)c2c1,inactive: 1.89%,
Cc1ccccc1CSc1nc2ccsc2c(=O)n1CCC(C)C,,"inconclusive [inhibitor, single point]"
Cc1ccc(C)c(N(C(=O)Cc2cccs2)C(C(=O)NC2CCCC2)c2ccc(C)o2)c1 (stereo not drawn),,active: 23.1 µM
NC(N)=Nc1nc(-c2ccccc2)c2ccccc2n1,,active: 25.9 µM
CCN(CC)S(=O)(=O)c1ccc(C)c(NC(=O)Cn2cnc3cc([N+](=O)[O-])ccc3c2=O)c1,,"inconclusive [inhibitor, single point]"
CCCSCCCNC(=O)c1ccc2c(c1)sc1nc(-c3ccc(OCC)cc3)cn12,,"inconclusive [inhibitor, single point]"
Cc1ccc2cc(CN(C(=O)c3cccc(Cl)c3)c3ccccc3)c(=O)[nH]c2c1,,active: 11.6 µM
O=C1NC[C@H](Cc2ccc(O)cc2)N(C[C@@H]2CCCN2C[C@H](Cc2ccc(O)cc2)N2C[C@H](Cc3ccccc3)N(CCc3ccccc3)C(=O)C2=O)C1=O,,"inconclusive [inhibitor, single point]"
COc1cccc(NC(=O)CN(C)C(=O)c2cc3c(s2)CCC3)c1,inactive: 8.01%,
CC(C)c1ccc(C(=O)Nc2ccc(CN3CCOCC3)cc2)cc1,,"inconclusive [inhibitor, single point]"
COc1ccc(OC)c(-c2nc(CN3CCN(C(=O)c4ccco4)CC3)c(C)o2)c1,inactive: -18%,
CC(O)(c1cccc(F)c1)c1nc(-c2cccc(C(=O)O)c2)cs1 (stereo not drawn),inactive: -1.01%,
C[C@@H]1CC(=O)[C@H]2CC(CO)=CCC[C@@H]2[C@@]1(C)CC/C(=C/CO)CO,inactive: -5.13%,

Structure (SMILES),"activity change, negative = growth inhibition",Potency
CS(=O)(=O)Nc1cccc(C2=NN(S(=O)(=O)c3ccccc3)C(c3ccco3)C2)c1 (stereo not drawn),,"inconclusive [inhibitor, single point]"
CC(NC(=O)CSc1ccc(S(=O)(=O)N2CCOCC2)cn1)c1ccc(Cl)cc1Cl (stereo not drawn),,"inconclusive [inhibitor, partial curve, poor fit]"
COc1cc(-c2cc(C(=O)N(C)Cc3ccccc3)c3ccccc3n2)cc(OC)c1OC,,active: 14.6 µM
O=C(Nc1ccccc1F)C1CCCN(S(=O)(=O)c2cccc3cccnc23)C1 (stereo not drawn),,"inconclusive [inhibitor, single point]"
CCOc1ccccc1NC(=O)CN(c1ccc(Cl)cc1)S(C)(=O)=O,,"inconclusive [inhibitor, single point]"
COc1cc(-c2coc3c(C(=O)NCc4ccc(N(C)C)cc4)cccc23)ccc1O,,active: 16.4 µM
CCCc1cc(C(=O)N2CCN(c3ccc(C(F)(F)F)cn3)CC2)sc1C,,"inconclusive [inhibitor, single point]"
CC(C)(C)c1ccc(C(=O)C2CCCN(C(=O)C3CCOCC3)C2)cc1 (stereo not drawn),,"inconclusive [inhibitor, single point]"
COc1ccc(C2/C=C\CN(CC(C)(C)C)CC(=O)N2Cc2ccc(F)cc2)cc1 (stereo not drawn),,"inconclusive [inhibitor, partial curve, poor fit]"
C#CCOCCOCCOCCNc1nc(N2CCN(C(=O)CCCCCCCCCCNC(=O)Cn3cc(CCCCCN)nn3)CC2)nc(N2CCN(C(=O)CCCCCCCCCCNC(=O)Cn3cc(C[C@@H](C)O)nn3)CC2)n1,,"inconclusive [inhibitor, single point]"
CCOc1ccc(CCNC(=O)C(O)c2ccccc2)cc1 (stereo not drawn),inactive: 4.02%,
CN1c2ccc(Cl)cc2-c2nc(SCC(=O)NCc3ccccc3)ncc2S1(=O)=O,,"inconclusive [inhibitor, single point]"
Cc1ccc(C(=O)Nc2ccc3nc(C)sc3c2)o1,,"inconclusive [inhibitor, single point]"
O=C(Nc1cccnc1)c1ccc2c(c1)OCO2,,"inconclusive [inhibitor, full curve, poor fit]"
Cc1ccc(OCc2ccc(-c3nc(C#N)c(NCc4ccccc4Cl)o3)o2)cc1,,"inconclusive [inhibitor, single point]"
Cc1ccc2cc(CN(CCCN3CCOCC3)C(=O)NC3CCCCC3)c(=O)[nH]c2c1C,,"inconclusive [inhibitor, single point]"
Cc1cccc(N2CCN(C(=O)CCCOc3ccccc3)CC2)c1C,,"inconclusive [inhibitor, partial curve]"
OC(CNCC(c1ccc(Cl)cc1Cl)c1c[nH]c2ccccc12)c1ccccc1 (stereo not drawn),,"inconclusive [inhibitor, single point]"
CCNC(=S)N1CCN(Cc2ccccc2)CC1,inactive: -18%,
Cc1cccc(NC2=NC3(CCCCC3)N=C(N)N2)c1,,"inconclusive [inhibitor, single point]"
Cc1cccc2c(C(=O)N3CCN(C(=O)c4ccco4)CC3)cc(-c3cccc(Br)c3)nc12,,"inconclusive [inhibitor, single point]"
Cc1cc(NC(=O)CSc2nc3c(C)ccc(C)c3cc2C#N)no1,,"inconclusive [inhibitor, full curve, poor fit]"
